{"source": "patent US10456339B2", "about": "“Organic hydroperoxide reduction in perfumery raw materials” (FIRMENICH SA, priority 2017, dated 2019)", "key": {"[1]": {"assay": "POV of mixed citrus oil treated with AKG-DiMeC12A salt", "details": "1.0% w/v", "description": "In addition to the treatment done in a model perfume as described above, a similar experiment was done in mixed citrus oil. A sample of mixed citrus oil was made by combining lime, orange, grapefruit, lemon, mandarin, tangerine, and bergamot oils, so that a variety of terpene hydroperoxides would be present in the treated mixture being tested. […] An untreated mixed citrus oil sample was handled similarly to the treated oil and also tested, because the POV can rise rapidly with handling of the sample (opening the bottle, agitation, etc.)."}, "[2]": {"assay": "POV of model perfume treated with AKG-DiMeC12A salt", "details": "2.0% w/v", "description": "A model perfume was made using 90/10 v/v ethanol/water as a solvent, and a mixture of orange, grapefruit, and bergamot oils as the perfume oil. The mixed citrus oil was loaded into the solvent at approximately 19.4% v/v (6 mL oil into 25 mL solvent). […] An untreated perfume sample was handled similarly to the treated perfume and also tested, because the POV can rise rapidly with handling of the sample (opening the bottle, agitation, etc.)."}, "[3]": {"assay": "Reduction of POV in model perfume using AKG-HEI", "details": "1.0% w/v", "description": "(§1) The mixed citrus oil was loaded into the solvent at approximately 16.7% v/v (40 mL oil into 200 mL solvent, 240 mL total perfume). Approximately 150 mg (1.0% w/v) of the AKG-HEI salt was dissolved in 15 mL of the mixed citrus perfume, and POV measurements were taken as a function of time after the addition. An untreated perfume sample was handled similarly to the treated perfume and also tested, because the POV can rise rapidly with handling of the sample (opening the bottle, agitation, etc.)."}, "[4]": {"assay": "POV of model perfume treated with AKG-mono(DiMeC12A)", "details": "1.0% w/v", "description": "A model perfume was made using 90/10 v/v ethanol/water as a solvent, and a mixture of orange, grapefruit, and bergamot oils as the perfume oil. The mixed citrus oil was loaded into the solvent at approximately 19.4% v/v (6 mL oil into 25 mL solvent). Approximately 200 mg (1.0% w/v) of the AKG-monoMeC12A salt was dissolved in 20 mL of the mixed citrus perfume, and POV measurements were taken as a function of time after the addition. An untreated perfume sample was handled similarly to the treated perfume and also tested, because the POV can rise rapidly with handling of the sample (opening the bottle, agitation, etc.)."}, "[5]": {"assay": "Reduction of POV in model perfume using PhPA-DiMeC10A", "details": "[…] w/v", "description": "as §1, with “164” for “150”, “(1.1%” for “(1.0%”, “PhPA-DiMeC10A” for “AKG-HEI”"}, "[6]": {"assay": "Reduction of POV in model perfume using oxaloacetic acid", "details": "0.83% w/v; […] (24 hours); indistinguishable from blank"}, "[7]": {"assay": "Reduction of POV in model perfume using α-ketoglutaric acid", "details": "1.2% w/v; 0.0 min (start value)"}}, "data": [{"smiles": "CCCCCCCCCCCCN(C)C.CCCCCCCCCCCCN(C)C.O=C(O)CCC(=O)C(=O)O", "note": "[AKG-DiMeC12A]", "values": [{"measurement": "POV of Treated Perfume", "setting": "[1]; 0.0 min (start value)", "result": 9.53, "unit": "mmol/L"}, {"measurement": "POV of Treated Perfume", "setting": "[1]; 90 min", "result": 3.32, "unit": "mmol/L"}, {"measurement": "POV of Treated Perfume", "setting": "[1]; 95 min", "result": 2.32, "unit": "mmol/L"}, {"measurement": "POV of Treated Perfume", "setting": "[1]; 105 min", "result": 2.63, "unit": "mmol/L"}, {"measurement": "POV of Treated Perfume", "setting": "[1]; 130 min", "result": 2.68, "unit": "mmol/L"}, {"measurement": "POV of Treated Perfume", "setting": "[1]; 150 min (2.5 hours)", "result": 2.28, "unit": "mmol/L"}, {"measurement": "POV of Treated Perfume", "setting": "[1]; 250 min", "result": 1.81, "unit": "mmol/L"}, {"measurement": "POV of Treated Perfume", "setting": "[1]; 260 min", "result": 1.41, "unit": "mmol/L"}, {"measurement": "POV of Treated Perfume", "setting": "[1]; 4320 min (3 days, 72 hours)", "result": 1.50, "unit": "mmol/L"}, {"measurement": "POV of Treated Perfume", "setting": "[2]; 0.0 min (start value)", "result": 12.74, "unit": "mmol/L"}, {"measurement": "POV of Treated Perfume", "setting": "[2]; 35 min", "result": 8.31, "unit": "mmol/L"}, {"measurement": "POV of Treated Perfume", "setting": "[2]; 45 min", "result": 8.35, "unit": "mmol/L"}, {"measurement": "POV of Treated Perfume", "setting": "[2]; 70 min", "result": 6.77, "unit": "mmol/L"}, {"measurement": "POV of Treated Perfume", "setting": "[2]; 130 min", "result": 6.54, "unit": "mmol/L"}, {"measurement": "POV of Treated Perfume", "setting": "[2]; 145 min", "result": 5.82, "unit": "mmol/L"}, {"measurement": "POV of Treated Perfume", "setting": "[2]; 180 min", "result": 4.89, "unit": "mmol/L"}, {"measurement": "POV of Treated Perfume", "setting": "[2]; 210 min", "result": 4.51, "unit": "mmol/L"}, {"measurement": "POV of Treated Perfume", "setting": "[2]; 240 min (4 hours)", "result": 4.15, "unit": "mmol/L"}, {"measurement": "POV of Treated Perfume", "setting": "[2]; 270 min", "result": 3.49, "unit": "mmol/L"}, {"measurement": "POV of Treated Perfume", "setting": "[2]; 4320 min (3 days, 72 hours), indistinguishable from blank", "result": 0.0, "unit": "indistinguishable mmol/L"}]}, {"smiles": "O=C(O)CCC(=O)C(=O)O.O=C1NCCN1CCO.O=C1NCCN1CCO", "note": "[AKG-HEI]", "values": [{"measurement": "POV of Treated Perfume", "setting": "[3]; 1 day", "result": 1.12, "unit": "mmol/L"}, {"measurement": "POV of Treated Perfume", "setting": "[3]; 2 days", "result": 0.72, "unit": "mmol/L"}, {"measurement": "POV of Treated Perfume", "setting": "[3]; 4 days", "result": 0.70, "unit": "mmol/L"}, {"measurement": "POV of Treated Perfume", "setting": "[3]; 7 days", "result": 0.56, "unit": "mmol/L"}]}, {"smiles": "CCCCCCCCCCCCN(C)C.O=C(O)CCC(=O)C(=O)O", "note": "[AKG-mono(DiMeC12A)]", "values": [{"measurement": "POV of Treated Perfume", "setting": "[4]; 0.0 min (start value)", "result": 11.99, "unit": "mmol/L"}, {"measurement": "POV of Treated Perfume", "setting": "[4]; 30 min (0.5 h)", "result": 7.01, "unit": "mmol/L"}, {"measurement": "POV of Treated Perfume", "setting": "[4]; 45 min (0.75 h)", "result": 6.97, "unit": "mmol/L"}, {"measurement": "POV of Treated Perfume", "setting": "[4]; 60 min (1.0 h)", "result": 7.02, "unit": "mmol/L"}, {"measurement": "POV of Treated Perfume", "setting": "[4]; 180 min (3.0 h)", "result": 4.89, "unit": "mmol/L"}, {"measurement": "POV of Treated Perfume", "setting": "[4]; 210 min (3.5 h)", "result": 4.54, "unit": "mmol/L"}, {"measurement": "POV of Treated Perfume", "setting": "[4]; 240 min (4.0 h)", "result": 3.78, "unit": "mmol/L"}, {"measurement": "POV of Treated Perfume", "setting": "[4]; 270 min (4.5 h)", "result": 3.77, "unit": "mmol/L"}, {"measurement": "POV of Treated Perfume", "setting": "[4]; 300 min (5.0 h)", "result": 3.05, "unit": "mmol/L"}, {"measurement": "POV of Treated Perfume", "setting": "[4]; 340 min (5.67 h)", "result": 2.52, "unit": "mmol/L"}, {"measurement": "POV of Treated Perfume", "setting": "[4]; 1560 min (26 hours), indistinguishable from blank", "result": 0.0, "unit": "indistinguishable mmol/L"}, {"measurement": "POV of Treated Perfume", "setting": "[4]; […] (24 hours)", "result": 0.76, "unit": "mmol/L"}, {"measurement": "POV of Treated Perfume", "setting": "[4]; […] (24.5 hours)", "result": 0.67, "unit": "mmol/L"}]}, {"smiles": "CCCCCCCCCCN(C)C.O=C(O)C(=O)Cc1ccccc1", "note": "[DiMeC10A-PhPA]", "values": [{"measurement": "POV of Treated Perfume", "setting": "[5]; 0.0 (start value)", "result": 9.44, "unit": "mmol/L"}, {"measurement": "POV of Treated Perfume", "setting": "[5]; 0.5 hours", "result": 5.7, "unit": "mmol/L"}, {"measurement": "POV of Treated Perfume", "setting": "[5]; 4 hours", "result": 4.58, "unit": "mmol/L"}, {"measurement": "POV of Treated Perfume", "setting": "[5]; 1 day", "result": 3.1, "unit": "mmol/L"}, {"measurement": "POV of Treated Perfume", "setting": "[5]; 2 days", "result": 2.38, "unit": "mmol/L"}, {"measurement": "POV of Treated Perfume", "setting": "[5]; 4 days", "result": 1.98, "unit": "mmol/L"}, {"measurement": "POV of Treated Perfume", "setting": "[5]; 7 days", "result": 1.33, "unit": "mmol/L"}]}, {"smiles": "O=C(O)CC(=O)C(=O)O", "note": "[oxaloacetic acid]", "values": [{"measurement": "POV of Treated Perfume", "setting": "[6]", "result": 0.0, "unit": "indistinguishable mmol/L"}]}, {"smiles": "O=C(O)CCC(=O)C(=O)O", "note": "[α-ketoglutaric acid]", "values": [{"measurement": "POV of Treated Perfume", "setting": "[7]", "result": 11.99, "unit": "mmol/L"}]}]}
